Results: the supplement of paper PMC3334620
Over roughly 33,000 sequences, “E-score (-0.5 to 0.5)” has its median near -0.056; the highest 2% begin near 0.38. The list shows a part of the results.

biological target: Stb4 (UniProt P50104); experiment: PBM E-score (8-mer binding enrichment) (E-score (-0.5 to 0.5)); higher = stronger / more preferred TF binding; most listed sequences are background and not binding sites; conditions: protein concentration: 200 nM; construct: GST-DNA-binding domain
In short: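 For each ungapped eight-base word taken together with its reverse complement, the Universal PBM Analysis Suite assigned an E-score. Binding data came from GST-tagged yeast transcription factors, applied at about 100-200 nM, on universal all-10-mer Agilent arrays made double-stranded by primer extension. Fluorescent anti-GST marked bound protein, and scans were normalised with masliner.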

| Sequence | PBM E-score |
| --- | --- |
| CAGTGCTC | -0.16 |
| ATTAAGCA | -0.0882 |
| CACGTACA | -0.059 |
| AGTCCGCC | 0.234 |
| ATAGTAAG | -0.151 |
| GACTTCGA | -0.155 |
| GCGAGTTA | -0.0128 |
| CAGCTTCG | 0.0466 |
| GATTTAGA | 0.0797 |
| CGCAACCG | 0.268 |
| AAGCGTAC | -0.183 |
| AATCTATA | 0.088 |
| ATAGGATG | -0.237 |
| AGCGAGGC | -0.167 |
| CGGGGTGA | 0.172 |
| CCTGATTC | -0.0894 |
| ATTAAGAC | -0.166 |
| ATATCACG | -0.0898 |
| CGCATAAA | -0.127 |
| GCACTCAA | -0.0468 |
| ACCCCGGA | 0.232 |
| TGTACACA | -0.261 |
| GAAGCACA | 0.102 |
| CAATCCCG | 0.352 |
| ATACCGTG | 0.0382 |

| Sequence | PBM E-score |
| --- | --- |
| ACTACTTG | -0.195 |
| ATTTCTAC | 0.0311 |
| GCACGTGA | -0.185 |
| AACTTAAC | 0.165 |
| CCCCGGGG | 0.252 |
| CATTAACG | 0.0792 |
| AAGAATCA | -0.0198 |
| ACCTGGGC | -0.321 |
| GGTTGAAC | -0.00254 |
| CATTCAGA | -0.0972 |
| ATCCGCTA | 0.243 |
| ACACATGT | -0.00364 |
| GCGTGTCC | 0.0304 |
| GGTGTTGA | -0.0925 |
| AAGGCAAT | -0.154 |
| AAGCCCAG | -0.125 |
| ATAGCCTG | -0.193 |
| ACACATCC | 0.228 |
| GACTGCAA | -0.18 |
| ACATAGAC | -0.193 |
| CGCCCCGC | 0.161 |
| AACGTACT | -0.126 |
| TCCAATAA | 0.00316 |
| ATACTGGA | -0.0296 |
| AGCACCGA | 0.224 |

| Sequence | PBM E-score |
| --- | --- |
| AAAAGGCA | -0.0536 |
| AAAGTGCT | -0.237 |
| CAACCACA | 0.0655 |
| AAAGGATT | -0.266 |
| CTGACAAA | -0.0138 |
| ACCGGGGA | 0.0642 |
| ACGTTTGG | -0.251 |
| ACACTGCA | -0.169 |
| TGAGATCA | -0.147 |
| AGCCAACC | 0.0376 |
| AAGACGAC | -0.0846 |
| CTTCTTCC | 0.0577 |
| CTAGAGTC | -0.272 |
| CGAGTGCG | 0.0767 |
| AGAGACTC | -0.107 |
| CTAAAGCA | -0.0261 |
| AAGGCATC | -0.107 |
| GTGTAAAC | -0.0521 |
| ATGTATCG | -0.0501 |
| ATCAGGTG | -0.08 |
| AACTGTGG | -0.0169 |
| CGGAAAAA | 0.446 |
| ATTATCGC | -0.195 |
| CCAATTCC | 0.155 |
| AGGCAGGC | -0.109 |

| Sequence | PBM E-score |
| --- | --- |
| AGGGTATG | -0.256 |
| ATGGACAA | -0.205 |
| AGAAAGGA | -0.161 |
| ATTTAACA | -0.105 |
| ACCAGAAC | -0.0183 |
| AATCAAAT | 0.0777 |
| ATACTCAT | -0.0635 |
| CGCGTCAG | -0.106 |
| GAGAGGAA | -0.117 |
| ACTGAGAG | -0.161 |
| AGCGATTG | -0.0885 |
| GAGAAGAA | 0.0753 |
| TGCCAGAA | -0.188 |
| TACTTGCA | -0.115 |
| ACGGTACG | 0.104 |
| ACTTCTAA | -0.103 |
| GCCCGTCC | 0.0561 |
| GTGGCATA | 0.0633 |
| AGTCGAAA | -0.127 |
| CCTACATA | -0.102 |
| GGGTCTGA | -0.0431 |
| AGGTTCTG | -0.267 |
| CATTTTGG | -0.133 |
| GATACACA | 0.0285 |
| AGAAATAG | -0.175 |

| Sequence | PBM E-score |
| --- | --- |
| CTAAATCA | -0.0716 |
| GTACCCGA | 0.437 |
| CTCTCCGA | 0.322 |
| ACACTGCT | -0.314 |
| CACCTCGG | 0.393 |
| TACATGAA | -0.167 |
| GGAACTCC | 0.211 |
| ACTGGACT | -0.274 |
| GACATAAA | -0.00649 |
| GTCCTGTA | -0.0697 |
| GTATCCTA | -0.107 |
| AGGACATA | -0.234 |
| CACAGACG | -0.222 |
| TAGTTTCA | -0.0807 |
| GTAAATAA | -0.0867 |
| GACAGTCA | -0.0496 |
| AGTAGCTC | -0.0881 |
| ATATGCCG | 0.304 |
| CGTCCCGC | 0.248 |
| AACGTTCG | 0.113 |
| ACTCGTGA | -0.241 |
| AAGCTTTG | -0.0371 |
| AAGATAGC | 0.0831 |
| TCAGGTCA | -0.111 |
| ATGTGAGC | -0.233 |

| Sequence | PBM E-score |
| --- | --- |
| CCGGGTGA | 0.354 |
| AAGTGCGT | -0.176 |
| CTCGGCAG | 0.444 |
| GCATAAAA | -0.00674 |
| AAGCACCT | -0.22 |
| ATATTGGC | 0.0793 |
| CACCTGCG | -0.018 |
| ACGGAGCG | 0.156 |
| AACAGAAT | -0.178 |
| GTATTCAA | 0.00801 |
| ACCGTCCC | 0.2 |
| CTTCTAGA | -0.0983 |
| GAAAGAGA | -0.0451 |
| AACTTCCG | 0.451 |
| ATCCGCTG | 0.203 |
| ATGCAGTA | 0.00511 |
| ACTTTAAT | -0.0201 |
| CAATCCGC | 0.191 |
| CGAGAGAC | 0.0166 |
| CGTCTCAC | -0.118 |
| AATGCAAG | -0.262 |
| CGTAGGTC | -0.11 |
| AACATCAA | -0.0266 |
| GCGAGTGA | -0.0567 |
| ACTAAGAT | -0.0286 |

| Sequence | PBM E-score |
| --- | --- |
| TGGTAAAA | 0.0638 |
| ACTTCTCC | 0.0961 |
| ATAGAGGG | -0.113 |
| ATACCTAT | -0.13 |
| CTGGTATA | -0.204 |
| TATTGCGA | 0.0344 |
| ACCGAGTA | 0.321 |
| GGCTTATA | -0.0784 |
| TCCCGCCA | 0.204 |
| CTATTTAC | 0.152 |
| ATTGGGCG | 0.0153 |
| AATCACGC | -0.15 |
| GAGCTGAA | -0.112 |
| ATATATTG | 0.118 |
| CATTCCTC | 0.0887 |
| GACCCTTA | -0.131 |
| AAGATTAA | -0.131 |
| GAAACCTA | 0.00342 |
| AAGCTACA | -0.239 |
| ATGCTTAA | -0.0401 |
| CATCACGC | 0.0419 |
| GCGTTCAC | 0.088 |
